Source: the supplement of paper PMC4604168 (melanoma cell lines)
Some of the results follow. Many values rest on one well or one pass, so single values are uncertain.

Key:
Assay in all cases: cell count relative to DMSO control; melanoma cells; higher = more viable cells
Settings in all cases: library dose: standard library concentration; 72 h
SkMel28 = system: SkMel28
SkMel2 = system: SkMel2
SkMel30 = system: SkMel30
SkMel5 = system: SkMel5
UACC257 = system: UACC257
UACC62 = system: UACC62
WM115 = system: WM115
WM1716 = system: WM1716
WM1745 = system: WM1745
WM3526 = system: WM3526
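Note: cells treated in 1,536-well plates, then fixed and DAPI-stained, with nuclei counted from automated high-throughput microscope images.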

Structure (SMILES) | cell count (SkMel28) | cell count (SkMel2) | cell count (SkMel30) | cell count (SkMel5) | cell count (UACC257) | cell count (UACC62) | cell count (WM115) | cell count (WM1716) | cell count (WM1745) | cell count (WM3526)
CC1(C)CCC(c2ccc(Cl)cc2)=C(CN2CCN(c3ccc(C(=O)NS(=O)(=O)c4ccc(N[C@H](CCN5CCOCC5)CSc5ccccc5)c(S(=O)(=O)C(F)(F)F)c4)cc3)CC2)C1 + C[C@@H](Oc1cc(-c2cnn(C3CCNCC3)c2)cnc1N)c1c(Cl)ccc(F)c1Cl [Crizotinib] (first compound 2 µM, partner dose 1 µM) | 58.9% | 68.7% | 66.6% | 86.3% | 29.5% | 71.1% | 44.8% | 32.9% | 2.38% | 77.2%
Cc1ccc(Nc2nccc(N(C)c3ccc4c(C)n(C)nc4c3)n2)cc1S(N)(=O)=O [Pazopanib] + Cn1c(=O)n(-c2ccc(C(C)(C)C#N)cc2)c2c3cc(-c4cnc5ccccc5c4)ccc3ncc21 [NVP-BEZ235] (first compound 2 µM, partner dose 0.02 µM) | 43.3% | 57.9% | 53.3% | 76.6% | 106% | 64.9% | 75.6% | 66.2% | 82.4% | 59.6%
Cc1ccc(Nc2nccc(N(C)c3ccc4c(C)n(C)nc4c3)n2)cc1S(N)(=O)=O [Pazopanib] + Cn1sc(=O)n(Cc2ccccc2)c1=O [TDZD-8] (first compound 2 µM, partner dose 2 µM) | 68.2% | 68.9% | 66.1% | 64.6% | 91.8% | 83.6% | 81.1% | 86.3% | 82.6% | 77.2%
O=C(/C=C/c1cccnc1)NCCCCC1CCN(C(=O)c2ccccc2)CC1 + CS(=O)(=O)c1ccc(C(=O)Nc2ccc(Cl)c(-c3ccccn3)c2)c(Cl)c1 [vismodegib] (first compound 0.05 µM, partner dose 5 µM) | 113% | 13% | 103% | 81.9% | 109% | 66.9% | 82.5% | 69.1% | 91.7% | 85.6%
O=C(/C=C/c1cccnc1)NCCCCC1CCN(C(=O)c2ccccc2)CC1 + COc1cc(Nc2ncc(F)c(Nc3ccc4c(n3)NC(=O)C(C)(C)O4)n2)cc(OC)c1OC [Tamatinib] (first compound 0.05 µM, partner dose 2 µM) | 62.4% | 31.4% | 117% | 48.9% | 95% | 96.2% | 71.5% | 60.9% | 48.4% | 74.4%
O=C(/C=C/c1cccnc1)NCCCCC1CCN(C(=O)c2ccccc2)CC1 + Cn1nnc2c(C(N)=O)ncn2c1=O [temozolomide] (first compound 0.05 µM, partner dose 10 µM) | 39.5% | 9.23% | 95.6% | 103% | 126% | 51.2% | 78% | 62.8% | 102% | 111%
CC1(C)CCC(c2ccc(Cl)cc2)=C(CN2CCN(c3ccc(C(=O)NS(=O)(=O)c4ccc(N[C@H](CCN5CCOCC5)CSc5ccccc5)c(S(=O)(=O)C(F)(F)F)c4)cc3)CC2)C1 + Cc1ccc(Nc2nccc(N(C)c3ccc4c(C)n(C)nc4c3)n2)cc1S(N)(=O)=O [Pazopanib] (first compound 2 µM, partner dose 2 µM) | 71.8% | 88.5% | 58.4% | 84.2% | 37.7% | 60.5% | 82.8% | 49% | 7.23% | 70.1%
O=C(/C=C/c1cccnc1)NCCCCC1CCN(C(=O)c2ccccc2)CC1 + OCCn1cc(-c2cnc3nnn(Cc4ccc5ncccc5c4)c3n2)cn1 [PF04217903] (first compound 0.05 µM, partner dose 5 µM) | 60.5% | 11.3% | 94.2% | 86.9% | 89.3% | 61.9% | 74.4% | 74.4% | 90.5% | 102%
O=C(/C=C/c1cccnc1)NCCCCC1CCN(C(=O)c2ccccc2)CC1 + CC(C)(C)c1cnc(CSc2cnc(NC(=O)C3CCNCC3)s2)o1 [SNS-032] (first compound 0.05 µM, partner dose 0.05 µM) | 74.6% | 24.4% | 83.3% | 80.1% | 99.3% | 69.7% | 70.2% | 82.4% | 79.8% | 92.8%
Cc1ccc(Nc2nccc(N(C)c3ccc4c(C)n(C)nc4c3)n2)cc1S(N)(=O)=O [Pazopanib] + CC(=O)c1c(C)c2cnc(Nc3ccc(N4CCNCC4)cn3)nc2n(C2CCCC2)c1=O [palbociclib] (first compound 2 µM, partner dose 0.2 µM) | 35.4% | 66% | 61.2% | 46.1% | 82.4% | 53.5% | 42.8% | 45.7% | 64% | 40%
O=C(/C=C/c1cccnc1)NCCCCC1CCN(C(=O)c2ccccc2)CC1 + C=C(c1ccc(C(=O)O)cc1)c1cc2c(cc1C)C(C)(C)CCC2(C)C [Bexarotene] (first compound 0.05 µM, partner dose 10 µM) | 99.9% | 12.8% | 99.4% | 103% | 82.8% | 66.4% | 112% | 84.7% | 85.5% | 104%
Cc1ccc(Nc2nccc(N(C)c3ccc4c(C)n(C)nc4c3)n2)cc1S(N)(=O)=O [Pazopanib] + CN(C)S(=O)(=O)c1ccc2c(c1)/C(=C/c1cc3c([nH]1)CCCC3)C(=O)N2 [SU6656] (first compound 2 µM, partner dose 2 µM) | 58.5% | 98.5% | 77% | 74.5% | 70.4% | 63.4% | 56.3% | 66.2% | 50.4% | 60.6%
CC1(C)CCC(c2ccc(Cl)cc2)=C(CN2CCN(c3ccc(C(=O)NS(=O)(=O)c4ccc(N[C@H](CCN5CCOCC5)CSc5ccccc5)c(S(=O)(=O)C(F)(F)F)c4)cc3)CC2)C1 + CN(NC(=O)CC(=O)NN(C)C(=S)c1ccccc1)C(=S)c1ccccc1 [STA4783] (first compound 2 µM, partner dose 0.03 µM) | 61.4% | 48.3% | 76.7% | 75.2% | 52% | 52.3% | 27.4% | 44.7% | 6.25% | 68%
CC1(C)CCC(c2ccc(Cl)cc2)=C(CN2CCN(c3ccc(C(=O)NS(=O)(=O)c4ccc(N[C@H](CCN5CCOCC5)CSc5ccccc5)c(S(=O)(=O)C(F)(F)F)c4)cc3)CC2)C1 + Cc1nc(Nc2ncc(C(=O)Nc3c(C)cccc3Cl)s2)cc(N2CCN(CCO)CC2)n1 [dasatanib] (first compound 2 µM, partner dose 0.02 µM) | 66.5% | 90.3% | 77.5% | 51.2% | 36.7% | 54.9% | 39.2% | 42% | 2.67% | 68%
O=C(/C=C/c1cccnc1)NCCCCC1CCN(C(=O)c2ccccc2)CC1 + CO[C@@H]1[C@H](N(C)C(=O)c2ccccc2)C[C@H]2O[C@]1(C)n1c3ccccc3c3c4c(c5c6ccccc6n2c5c31)C(=O)NC4 [Midostaurin] (first compound 0.05 µM, partner dose 0.4 µM) | 50.5% | 21.8% | 91% | 57% | 72.4% | 64.3% | 42.6% | 37.2% | 32.4% | 80.2%
O=C(/C=C/c1cccnc1)NCCCCC1CCN(C(=O)c2ccccc2)CC1 + CC(=O)c1c(C)c2cnc(Nc3ccc(N4CCNCC4)cn3)nc2n(C2CCCC2)c1=O [palbociclib] (first compound 0.05 µM, partner dose 0.2 µM) | 30.1% | 27.7% | 69.7% | 50.3% | 66.8% | 53.5% | 45.6% | 35.8% | 64.2% | 45.5%
O=C(/C=C/c1cccnc1)NCCCCC1CCN(C(=O)c2ccccc2)CC1 + COc1ccc(Cl)c(Nc2nc3ccccc3nc2NS(=O)(=O)c2cccc(NC(=O)C(C)(C)N)c2)c1 [XL147] (first compound 0.05 µM, partner dose 4 µM) | 75.5% | 9.82% | 103% | 94.6% | 86.6% | 79.2% | 103% | 89.2% | 96.7% | 111%
Cc1ccc(Nc2nccc(N(C)c3ccc4c(C)n(C)nc4c3)n2)cc1S(N)(=O)=O [Pazopanib] + Nc1nc(F)nc2c1ncn2[C@@H]1O[C@H](CO)[C@@H](O)[C@@H]1O [fludarabine] (first compound 2 µM, partner dose 1 µM) | 2.55% | 1.41% | 28.2% | 27.9% | 39.5% | 57.7% | 90.6% | 71.8% | 79.9% | 26.8%
O=C(/C=C/c1cccnc1)NCCCCC1CCN(C(=O)c2ccccc2)CC1 + C[C@@H]1CCN(C(=O)CC#N)C[C@@H]1N(C)c1ncnc2[nH]ccc12 [CP690550] (first compound 0.05 µM, partner dose 5 µM) | 58.4% | 21.4% | 92% | 121% | 107% | 78% | 60.8% | 69.2% | 71.3% | 91.1%
O=C(/C=C/c1cccnc1)NCCCCC1CCN(C(=O)c2ccccc2)CC1 + NC(=O)Nc1cc(-c2cccc(F)c2)sc1C(=O)N[C@H]1CCCNC1 [AZD7762] (first compound 0.05 µM, partner dose 0.1 µM) | 36.4% | 13.6% | 102% | 95.3% | 101% | 62.7% | 76.9% | 78.2% | 94.3% | 47.7%
